PubChem BioAssay (Tox21)
The shares of active, inactive and inconclusive entries below differ from those in the screen. For part of these data: A potency beside an inconclusive call is a rough fit, not a confirmed value. Active and inactive are the calls of the source. Unless noted, the call rests on the fitted dose curve.

Key:
[1] = target: Estrogen receptor beta (Homo sapiens) (UniProt Q92731); assay: qHTS assay to identify small molecule agonists of the estrogen receptor beta (ER-beta) signaling pathway (AID 1259377; active means well fitted activation curve with a large enough effect in the signal ratio in the repeat runs, not every such curve was filed as active; inconclusive means weak or mixed curves, or effect the other way; the % refers to the signal ratio; further: potency means the concentration at half of the fitted maximal effect; on activation: on the % scale 0 is the no-effect control and ±100 the full control effect); settings: ER-beta-UAS-bla HEK293T, beta-lactamase FRET ratio, 16 h; activation: at 92.4 µM (top of the series) unless noted
UniProt Q92731, sequence (Q92731 whole entry, looked up): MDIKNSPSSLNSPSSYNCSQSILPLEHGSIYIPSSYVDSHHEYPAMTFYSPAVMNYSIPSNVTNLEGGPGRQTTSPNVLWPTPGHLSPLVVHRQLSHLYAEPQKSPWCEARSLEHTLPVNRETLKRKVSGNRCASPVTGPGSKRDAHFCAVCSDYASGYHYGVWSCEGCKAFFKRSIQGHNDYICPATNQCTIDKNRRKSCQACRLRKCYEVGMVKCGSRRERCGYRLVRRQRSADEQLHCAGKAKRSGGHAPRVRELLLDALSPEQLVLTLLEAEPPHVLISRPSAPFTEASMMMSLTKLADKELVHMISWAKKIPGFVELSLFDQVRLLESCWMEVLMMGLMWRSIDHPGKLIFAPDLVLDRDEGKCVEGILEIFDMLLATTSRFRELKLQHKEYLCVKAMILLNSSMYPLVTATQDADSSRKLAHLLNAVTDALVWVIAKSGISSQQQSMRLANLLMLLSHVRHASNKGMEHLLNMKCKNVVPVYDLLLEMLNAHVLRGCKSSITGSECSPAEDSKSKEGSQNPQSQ
How it was run: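 Ratiometric beta-lactamase FRET read-out came after 2 h substrate loading at room temperature. It followed 16 h compound treatment at 37C of GripTite HEK293T cells carrying a UAS-bla reporter, plated in 2% charcoal-stripped FBS medium.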

[2] = target: Estrogen receptor beta (Homo sapiens) (UniProt Q92731); assay: qHTS assay to identify small molecule antagonists of the estrogen receptor beta (ER-beta) signaling pathway (AID 1259378; active means well fitted inhibition curve with a large enough effect in the signal ratio in the repeat runs, not every such curve was filed as active; inconclusive means weak or mixed curves, or effect the other way; inactive means no such curve, though single readings can be large or run the other way; the % refers to the signal ratio; further: potency means the concentration at half of the fitted maximal effect; on activity, negative = inhibition: on the % scale 0 is the no-effect control and ±100 the full control effect); settings: ER-beta-UAS-bla HEK293T, beta-lactamase FRET ratio, 16 h; activity, negative = inhibition: at 92.4 µM (top of the series) unless noted
How it was run: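 ER-beta-UAS-bla HEK293T (GripTite) cells in 2% charcoal-stripped FBS medium were preincubated 6 hr at 37C, dosed with compound, then stimulated with 1 nM E2 (final) for 16 hr; beta-lactamase reporter read by B/G FRET fluorescence after 2 hr substrate loading.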

[3] = target: Thyrotropin receptor (Homo sapiens) (UniProt P16473); assay: qHTS assay to identify small molecule antagonists of the thyroid stimulating hormone receptor (TSHR) signaling pathway (AID 1259385); settings: TSHR-HEK293 cAMP HTRF, TSH-stimulated antagonist mode; activity change, negative = inhibition: at 92.4 µM (top of the series) unless noted; further: on the % scale 0 is the no-effect control and ±100 the full control effect; nearly all actives have a fitted effect of over 20% in size
UniProt P16473, sequence (P16473 whole entry, looked up): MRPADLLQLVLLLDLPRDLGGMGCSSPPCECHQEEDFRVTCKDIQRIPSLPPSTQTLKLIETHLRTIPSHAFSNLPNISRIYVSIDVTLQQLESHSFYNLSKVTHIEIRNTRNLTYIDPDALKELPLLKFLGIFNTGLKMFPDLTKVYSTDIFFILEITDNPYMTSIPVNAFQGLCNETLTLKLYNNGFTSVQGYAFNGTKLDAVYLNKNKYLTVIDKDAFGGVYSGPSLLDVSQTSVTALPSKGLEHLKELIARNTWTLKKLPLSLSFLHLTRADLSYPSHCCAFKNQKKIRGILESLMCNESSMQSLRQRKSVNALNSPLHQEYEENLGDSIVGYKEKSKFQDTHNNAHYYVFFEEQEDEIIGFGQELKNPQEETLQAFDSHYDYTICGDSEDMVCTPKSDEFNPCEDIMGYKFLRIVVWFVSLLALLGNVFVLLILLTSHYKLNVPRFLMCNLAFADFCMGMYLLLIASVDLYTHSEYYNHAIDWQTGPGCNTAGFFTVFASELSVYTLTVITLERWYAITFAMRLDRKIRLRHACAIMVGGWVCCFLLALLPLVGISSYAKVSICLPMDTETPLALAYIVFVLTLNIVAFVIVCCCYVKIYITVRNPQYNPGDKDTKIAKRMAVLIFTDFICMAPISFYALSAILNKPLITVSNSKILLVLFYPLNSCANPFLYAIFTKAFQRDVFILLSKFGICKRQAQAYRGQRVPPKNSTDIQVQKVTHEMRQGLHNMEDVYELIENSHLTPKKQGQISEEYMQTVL
How it was run: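 TSHR-HEK293 cells were plated and held 18 h at 37C/5% CO2, then given compound plus Ro20-1724 and stimulated with TSH at 1.5 ng/mL final. After 30 min at room temperature, cAMP was detected with cAMP-d2/anti-cAMP-cryptate (1 h) by fluorescence.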

[4] = target: Progesterone receptor (Homo sapiens) (UniProt P06401); assay: qHTS assay to identify small molecule agonists of the progesterone receptor (PR) signaling pathway (AID 1346784); settings: PR-UAS-bla HEK293T, beta-lactamase FRET ratio, 16 h; activation: at 92.4 µM (top of the series) unless noted; further: nearly all actives have a fitted effect of over 30% in size; further: potency means the concentration at half of the fitted maximal effect; on activation: on the % scale 0 is the no-effect control and ±100 the full control effect
UniProt P06401, sequence (P06401 whole entry, looked up): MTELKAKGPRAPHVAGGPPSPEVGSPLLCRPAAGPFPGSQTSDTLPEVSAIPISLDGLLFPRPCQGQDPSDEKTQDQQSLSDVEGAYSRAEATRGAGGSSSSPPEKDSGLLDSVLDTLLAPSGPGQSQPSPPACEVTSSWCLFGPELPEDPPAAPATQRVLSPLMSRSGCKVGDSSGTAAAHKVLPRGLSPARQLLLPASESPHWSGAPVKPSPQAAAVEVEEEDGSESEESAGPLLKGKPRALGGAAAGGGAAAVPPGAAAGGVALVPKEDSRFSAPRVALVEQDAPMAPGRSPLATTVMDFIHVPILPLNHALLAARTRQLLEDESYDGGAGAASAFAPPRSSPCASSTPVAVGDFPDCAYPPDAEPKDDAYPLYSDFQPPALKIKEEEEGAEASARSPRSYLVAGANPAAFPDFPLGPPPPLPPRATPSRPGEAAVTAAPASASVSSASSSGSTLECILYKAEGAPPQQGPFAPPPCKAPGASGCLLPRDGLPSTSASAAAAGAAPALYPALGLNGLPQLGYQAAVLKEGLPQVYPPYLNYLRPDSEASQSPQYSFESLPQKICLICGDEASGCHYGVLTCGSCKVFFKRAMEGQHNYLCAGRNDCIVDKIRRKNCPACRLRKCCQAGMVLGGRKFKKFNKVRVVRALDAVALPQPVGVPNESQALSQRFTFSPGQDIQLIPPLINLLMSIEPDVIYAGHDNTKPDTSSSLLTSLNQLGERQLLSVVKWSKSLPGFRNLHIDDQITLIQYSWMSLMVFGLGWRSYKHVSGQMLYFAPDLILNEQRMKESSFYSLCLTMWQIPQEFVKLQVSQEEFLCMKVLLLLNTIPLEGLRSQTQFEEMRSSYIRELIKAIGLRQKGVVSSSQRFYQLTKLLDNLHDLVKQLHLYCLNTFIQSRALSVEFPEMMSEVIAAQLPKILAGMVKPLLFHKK
How it was run: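 Agonist qHTS: compounds pinned onto 3,000 PR-UAS-bla HEK 293T cells per well in charcoal-stripped serum medium, 16hr at 37C, then beta-lactamase activity measured by LiveBLAzer FRET fluorescence after 2 hours at room temperature.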

[5] = target: Progesterone receptor (Homo sapiens) (UniProt P06401); assay: qHTS assay to identify small molecule antagonists of the progesterone receptor (PR) signaling pathway (AID 1346795; active means well fitted inhibition curve with a large enough effect in the signal ratio in the repeat runs, not every such curve was filed as active; inconclusive means weak or mixed curves; the % refers to the signal ratio; further: potency means the concentration at half of the fitted maximal effect; on activity change, negative = inhibition: on the % scale 0 is the no-effect control and ±100 the full control effect); settings: PR-UAS-bla HEK293T, beta-lactamase FRET ratio, 16 h; activity change, negative = inhibition: at 92.4 µM (top of the series) unless noted
How it was run: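 Antagonist mode with agonist R5020 at 1 nM final and 16 hr incubation at 37C. Reporter was beta-lactamase driven by UAS in HEK293T (PR-UAS-bla), 2% charcoal-stripped serum; signal from LiveBLAzer FRET substrate, 2 hr at room temperature.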

[6] = qHTS assay to identify small molecule antagonists of the progesterone receptor (PR) signaling pathway - cell viability counter screen (AID 1346798; active means well fitted curve in the direction sought with a large enough effect in the repeat runs; inconclusive means weak or mixed curves; inactive means no such curve, though single readings can be large; an effect the other way counts as inactive or inconclusive; further: potency means the concentration at half of the fitted maximal effect; nearly all actives have a fitted effect of over 50% in size)
How it was run: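 Cytotoxicity read as CellTiter-Glo luminescence (30 min, room temperature) in the same wells as the beta-lactamase readout. HEK293T PR-UAS-bla cells in charcoal-stripped 2% FBS received compound and R5020, then 16 h at 37C, 5% CO2.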

[7] = qHTS assay to identify small molecule antagonists of the TGF-beta/Smad signaling pathway (AID 1346924; active means well fitted inhibition curve with a large enough effect in the signal ratio in the repeat runs, not every such curve was filed as active; inconclusive means weak or mixed curves; the % refers to the signal ratio); settings: SBE-bla HEK293T, TGF-beta/Smad reporter, beta-lactamase ratio; activity, negative = inhibition: at 76.8 µM (top of the series) unless noted
How it was run: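 SBE-bla HEK 293T cells were plated overnight, then received compound in DMSO plus TGF-beta1 (added as a 0.25 ng/mL solution) and were incubated 5 h at 37 C. Beta-lactamase reporter activity was read after 2 h at room temperature with LiveBLAzer B/G FRET substrate (ex 405, em 460/530 nm).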

[8] = qHTS assay to identify small molecule agonists of the estrogen receptor beta (ER-beta) signaling pathway - cell viability counter screen (AID 1259380; active means well fitted curve in the direction sought with a large enough effect in the repeat runs; inconclusive means weak or mixed curves; inactive means no such curve, though single readings can be large; an effect the other way counts as inactive or inconclusive; further: nearly all actives have a fitted effect of over 30% in size; further: potency means the concentration at half of the fitted maximal effect)
How it was run: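 HEK293T ER-beta-UAS-bla; 2% CS-FBS; 6 hr pre-plate, 16 hr cpd at 37C/5% CO2; LiveBLAzer read first, then CellTiter-Glo 30 min RT, luminescence.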

[9] = qHTS assay to identify small molecule agonists of the progesterone receptor (PR) signaling pathway - cell viability counter screen (AID 1346799); further: potency means the concentration at half of the fitted maximal effect; nearly all actives have a fitted effect of over 45% in size
How it was run: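 Cytotoxicity measured by CellTiter-Glo luminescence (30 min, RT) in the same wells as the PR beta-lactamase agonist read. Those HEK293T cells had 16 h compound treatment at 37 C in 2% charcoal-stripped FBS medium.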

[10] = qHTS assay to identify small molecule agonists of the estrogen receptor alpha (ER-alpha) signaling pathway in the presence of an antagonist - cell viability counter screen (AID 1259386; active means well fitted curve in the direction sought with a large enough effect in the repeat runs; inconclusive means weak or mixed curves; inactive means no such curve, though single readings can be large; an effect the other way counts as inactive or inconclusive;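 further: potency means the concentration at half of the fitted maximal effect; cells exposed to compounds for 22 h at 37 °C before the viability read; nearly all actives have a fitted effect of over 30% in size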)
How it was run: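 VM7Luc4E2, stripped-serum pre-culture 5 d; 24hr plating; +ICI-182,780 10.0nM final; cpds 15 conc, 22hr, 37C/5% CO2; CellTiter-Fluor added at 21hr, fluorescence 1hr later.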

[11] = qHTS assay to identify small molecule agonists of the TGF-beta/Smad signaling pathway (AID 1346859; active means well fitted activation curve with a large enough effect in the signal ratio in the repeat runs, not every such curve was filed as active; inconclusive means weak or mixed curves; the % refers to the signal ratio; further: potency means the concentration at half of the fitted maximal effect); settings: SBE-bla HEK293T, TGF-beta/Smad beta-lactamase reporter, 5 h; activation: at 76.8 µM (top of the series) unless noted
How it was run: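 Fluorescence (ex 405 nm; em 460 and 530 nm) was read 2 h after LiveBLAzer FRET substrate at RT. The preceding compound treatment of overnight-plated SBE-bla HEK293T cells lasted 5 h at 37 C.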
Tags describe the fitted curve by direction and shape or compound fluorescence and quenching.

CC(C)(C)C(=O)OCOC(=O)C1N2C(=O)CC2S(=O)(=O)C1(C)C (stereo not drawn)
inconclusive: activation [1] -10.4% [at 42.5 µM] | activation [4] -22.3% [at 42.5 µM] | Potency [5] 15 µM [rising, partial curve, poor fit] | Potency [6] 2.98 µM [cytotoxic, single point] | activity, negative = inhibition [7] 3.77% [at 35.3 µM]
inactive: Potency [3]
active: Potency [2] 10.6 µM

COc1cc(C(=O)NCCCCCC(=O)O)cc(OC)c1OC
inactive: Potency [1] | Potency [8]

C=C(C)[C@@H]1CCC2=CCC[C@@H](C)[C@]2(C)C1
inconclusive: activation [1] 10.5% | activity, negative = inhibition [2] -41.9% | Potency [4] 54.5 µM [activator, partial curve] | Potency [9] 68.6 µM [rising, single point]

Oc1ccc2c(c1)OCO2
inconclusive: Potency [1] 3.04 µM [falling, single point] | activity, negative = inhibition [2] -33.3% | Potency [10] 76.3 µM [cytotoxic, single point] | Potency [5] 60.6 µM [rising, single point]

CN(C/C=C/C#CC(C)(C)C)Cc1cccc2ccccc12
inconclusive: activation [1] -3.95% [at 42.5 µM] | activity, negative = inhibition [2] -38.1% [at 42.5 µM] | Potency [4] 33.5 µM [falling, single point] | activity change, negative = inhibition [5] -25.3% [at 42.5 µM]
active: Potency [6] 26.6 µM | Potency [9] 13.3 µM

OCCN1CCNCC1
inconclusive: activation [1] 9.98% | Potency [8] 76.2 µM [cytotoxic, partial curve, poor fit]

c1cc(OCC2CO2)cc(OCC2CO2)c1 (stereo not drawn)
inconclusive: Potency [1] 42.9 µM [rising, partial curve] | Potency [2] 54 µM [rising, partial curve] | Potency [10] 68 µM [cytotoxic, single point] | Potency [4] 68 µM [cytotoxic, single point] | Potency [5] 68 µM | Potency [6] 68 µM [cytotoxic, single point] | Potency [11] 54.5 µM [rising, single point]
active: Potency [9] 60.6 µM
